{"source": "the supplement of paper PMC3334620", "note": "In all, about 33,000 sequences were measured (“E-score (-0.5 to 0.5)”: median about -0.021, highest 2% from about 0.32 on). The list shows a part of the results."}
{"target": "T1, Zap1 (UniProt P47043)", "T1 sequence": "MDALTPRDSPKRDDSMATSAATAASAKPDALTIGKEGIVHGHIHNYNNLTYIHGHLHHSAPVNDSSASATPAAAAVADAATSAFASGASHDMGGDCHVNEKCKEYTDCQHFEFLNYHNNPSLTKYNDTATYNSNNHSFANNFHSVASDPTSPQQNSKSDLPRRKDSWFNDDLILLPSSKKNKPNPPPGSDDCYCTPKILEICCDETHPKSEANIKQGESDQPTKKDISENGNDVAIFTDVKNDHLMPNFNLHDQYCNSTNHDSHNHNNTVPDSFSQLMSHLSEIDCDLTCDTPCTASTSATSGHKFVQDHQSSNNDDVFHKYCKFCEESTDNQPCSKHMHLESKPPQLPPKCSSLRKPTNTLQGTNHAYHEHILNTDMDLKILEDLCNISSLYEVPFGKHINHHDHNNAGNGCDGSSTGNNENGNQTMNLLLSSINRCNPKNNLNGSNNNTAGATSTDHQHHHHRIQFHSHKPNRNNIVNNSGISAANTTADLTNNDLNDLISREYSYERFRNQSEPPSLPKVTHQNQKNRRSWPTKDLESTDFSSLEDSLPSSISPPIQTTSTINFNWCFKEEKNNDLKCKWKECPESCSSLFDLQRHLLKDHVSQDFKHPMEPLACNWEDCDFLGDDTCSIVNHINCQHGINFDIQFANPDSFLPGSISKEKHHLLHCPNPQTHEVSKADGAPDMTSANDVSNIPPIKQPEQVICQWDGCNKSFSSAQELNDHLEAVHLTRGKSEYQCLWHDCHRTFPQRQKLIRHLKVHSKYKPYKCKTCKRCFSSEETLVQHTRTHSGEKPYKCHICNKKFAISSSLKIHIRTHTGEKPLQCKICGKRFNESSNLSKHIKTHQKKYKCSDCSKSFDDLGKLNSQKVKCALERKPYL", "experiment": "PBM E-score (8-mer binding enrichment) (E-score (-0.5 to 0.5)); higher = stronger / more preferred TF binding; most listed sequences are background and not binding sites", "conditions": "protein concentration: 200 nM; construct: GST-full length", "method": "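Universal 'all 10-mer' protein binding microarrays (Agilent AMADID 015681) probed with GST-tagged S. cerevisiae TFs (full-length or DBD) made by in vitro transcription/translation (PURExpress), about 100-200 nM. Bound TF was detected with fluorescent anti-GST. Each ungapped 8-mer (which stands for itself and its reverse complement) is scored by the PBM enrichment score (E-score), a modified Wilcoxon-Mann-Whitney statistic from -0.5 to +0.5, computed with the Universal PBM Analysis Suite. Scale: above 0.35 generally sequence-specific binding.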"}
{"sequence": "AGCCAAAA", "PBM E-score": 0.122}
{"sequence": "ATGCATAA", "PBM E-score": -0.0505}
{"sequence": "CCTGCACA", "PBM E-score": -0.0498}
{"sequence": "CCCGGTAC", "PBM E-score": 0.128}
{"sequence": "CTTGGTGC", "PBM E-score": -0.211}
{"sequence": "GAATCCTA", "PBM E-score": -0.0331}
{"sequence": "ATGCATCC", "PBM E-score": -0.135}
{"sequence": "CTCCCCAG", "PBM E-score": -0.164}
{"sequence": "ATGTGTTA", "PBM E-score": 0.0877}
{"sequence": "TAGGTGAA", "PBM E-score": 0.0359}
{"sequence": "AAAGCCTA", "PBM E-score": -0.0886}
{"sequence": "TCTCTTCA", "PBM E-score": -0.139}
{"sequence": "AGTCTCGC", "PBM E-score": -0.13}
{"sequence": "CTAGGGCA", "PBM E-score": -0.129}
{"sequence": "AACGGCAA", "PBM E-score": -0.144}
{"sequence": "CGCGTAAA", "PBM E-score": 0.1}
{"sequence": "GCGACCAA", "PBM E-score": 0.165}
{"sequence": "CATTCATA", "PBM E-score": 0.167}
{"sequence": "ACCCTAAG", "PBM E-score": 0.457}
{"sequence": "CGGTCCCC", "PBM E-score": -0.00173}
{"sequence": "ACGCGGAG", "PBM E-score": -0.0631}
{"sequence": "GACCAGAC", "PBM E-score": 0.0299}
{"sequence": "AGGAGATA", "PBM E-score": -0.178}
{"sequence": "GGGCCGTA", "PBM E-score": -0.0203}
{"sequence": "CGTCTTAG", "PBM E-score": -0.141}
{"sequence": "ATAGCAGG", "PBM E-score": 0.0205}
{"sequence": "AACTCAGG", "PBM E-score": -0.0157}
{"sequence": "CGCTGTAG", "PBM E-score": -0.0306}
{"sequence": "CGCCTTGC", "PBM E-score": -0.135}
{"sequence": "TGACGTAA", "PBM E-score": -0.0854}
{"sequence": "AGGATTTG", "PBM E-score": -0.103}
{"sequence": "ATCCCTGC", "PBM E-score": -0.201}
{"sequence": "AATAATTC", "PBM E-score": -0.0371}
{"sequence": "AGGACTAC", "PBM E-score": -0.186}
{"sequence": "AAATTAGG", "PBM E-score": 0.162}
{"sequence": "ACCCAGAA", "PBM E-score": 0.262}
{"sequence": "GCCTCTGA", "PBM E-score": -0.16}
{"sequence": "CAGGCACC", "PBM E-score": -0.161}
{"sequence": "AAGAGTCC", "PBM E-score": -0.0923}
{"sequence": "ATTTAGGA", "PBM E-score": 0.104}
{"sequence": "ATAATGAA", "PBM E-score": 0.187}
{"sequence": "CTCGTCAG", "PBM E-score": -0.0506}
{"sequence": "CCGCTCTC", "PBM E-score": -0.112}
{"sequence": "ACATGCCA", "PBM E-score": 0.0303}
{"sequence": "GGGGGAGA", "PBM E-score": -0.245}
{"sequence": "AGGACGGC", "PBM E-score": -0.231}
{"sequence": "AGCCGCGG", "PBM E-score": 0.175}
{"sequence": "ATTCGACA", "PBM E-score": -0.0415}
{"sequence": "ACACCTTC", "PBM E-score": 0.0347}
{"sequence": "GCTAGGCA", "PBM E-score": -0.168}
{"sequence": "AGGAAGGA", "PBM E-score": -0.273}
{"sequence": "AACTGAAC", "PBM E-score": -0.00072}
{"sequence": "CGGGTTCC", "PBM E-score": 0.157}
{"sequence": "AACCCTTA", "PBM E-score": 0.457}
{"sequence": "TACAGCAA", "PBM E-score": -0.00013}
{"sequence": "CCAGCTGA", "PBM E-score": -0.0768}
{"sequence": "CATAAAAC", "PBM E-score": 0.0957}
{"sequence": "ATATGACA", "PBM E-score": 0.0395}
{"sequence": "CTACCACA", "PBM E-score": 0.16}
{"sequence": "CATGGCGA", "PBM E-score": -0.0505}
{"sequence": "ATGTTGGG", "PBM E-score": 0.0154}
{"sequence": "CCACTCAA", "PBM E-score": 0.193}
{"sequence": "CCGCCTGC", "PBM E-score": -0.117}
{"sequence": "GAATTTAA", "PBM E-score": 0.0236}
{"sequence": "GTCGCCAA", "PBM E-score": 0.0851}
{"sequence": "TCACAACA", "PBM E-score": 0.245}
{"sequence": "AGGTACAG", "PBM E-score": 0.0282}
{"sequence": "AAGAACTA", "PBM E-score": 0.0816}
{"sequence": "CATCTGTA", "PBM E-score": -0.157}
{"sequence": "AGTGGCTC", "PBM E-score": -0.175}
{"sequence": "CACCAACA", "PBM E-score": 0.0503}
{"sequence": "TCGAGTCA", "PBM E-score": -0.21}
{"sequence": "GATATTGA", "PBM E-score": -0.0969}
{"sequence": "TAGAAACA", "PBM E-score": 0.228}
{"sequence": "CTACGCAG", "PBM E-score": -0.225}
{"sequence": "CGTCTGGC", "PBM E-score": -0.0743}
{"sequence": "ATCGCAGC", "PBM E-score": -0.0336}
{"sequence": "GCTGTAAA", "PBM E-score": 0.061}
{"sequence": "AAACGGGG", "PBM E-score": -0.0125}
{"sequence": "ATACACAA", "PBM E-score": 0.108}
{"sequence": "AGGCTCCG", "PBM E-score": -0.128}
{"sequence": "CCGGCAGC", "PBM E-score": -0.137}
{"sequence": "CTTAATCA", "PBM E-score": 0.173}
{"sequence": "AGCAGCGA", "PBM E-score": -0.068}
{"sequence": "AACGTTGC", "PBM E-score": -0.161}
{"sequence": "ACGACATA", "PBM E-score": -0.0747}
{"sequence": "GCAAACCC", "PBM E-score": 0.149}
{"sequence": "AAACGGGT", "PBM E-score": 0.233}
{"sequence": "GTAAGGGA", "PBM E-score": 0.0149}
{"sequence": "CACCGCCC", "PBM E-score": 0.127}
{"sequence": "CTTGCTGA", "PBM E-score": -0.0224}
{"sequence": "CCTATAGG", "PBM E-score": 0.346}
{"sequence": "ACACGGAT", "PBM E-score": 0.0123}
{"sequence": "CGAGTGTA", "PBM E-score": -0.162}
